The full ranking holds about 81,000 sequences; the median of “one-hybrid fitness for binding NBS DNA” is about -0.1, and the highest 2% start at about 0.36. The list shows a part of the results. Some results are limits rather than exact numbers.

To fix the notation:
B1: Caulobacter ParB omega fusion; a variant is named by its letters at X, in order, B8GW30 (parent)
chain: MESVVVGEPGMSEGRRGLGRGLSALLGEVDAAPAQAPGEQLGGSREAPIEILQRNPDQPRRTFREEDLEDLSNSIREKGVLQPILVRPSPDTAGEYQIVAGERAWRAAQRAGLKTVPIMVRELDDLAVLEIGIIENVQRADLNVLEEALSYKVLMEKFERTQENIAQTIGKSXSHVANXMRLLXLPDEVQSYLVSGELTAXHARAIAAAADPVALAKQIIEGGLSVRETEALARKAPNLSAGKSKGGRPPRVKDTDTQALESDLSSVLGLDVSIDHRGSTGTLTITYATLEQLDDLCNRLTRGI

This assay covers variants of B1. Nature of the assay: one-hybrid fitness for binding NBS DNA (the Noc-binding site; scaled: cognate 1, non-cognate 0); higher = stronger binding. The note with it: with NBS DNA site. The procedure, abridged:
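Selection: bacterial one-hybrid in E. coli USO, HIS3 reporter with the site 19 bp from the promoter, 48 hours at 37°C on M9-minus-histidine plus 0.1 mM IPTG and 5 mM 3-AT. Libraries were Caulobacter ParB with four randomised specificity codons, sequenced on Illumina before and after selection. Fitness is the rescaled log change in variant-to-wild-type read ratio, anchored to the cognate and non-cognate sites.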
As for KSRD, the “one-hybrid fitness for binding NBS DNA” value is not above 0.2.

Take RYMI: the “one-hybrid fitness for binding NBS DNA” value is not above 0.2.

For the variant PDHT, the “one-hybrid fitness for binding NBS DNA” value is not above 0.2.

Regarding VIQS, the “one-hybrid fitness for binding NBS DNA” value was not above 0.2.

Turning to ACPT, the “one-hybrid fitness for binding NBS DNA” value was not above 0.2.

YTYG: the “one-hybrid fitness for binding NBS DNA” value was not above 0.2.

For the variant QRNY, the “one-hybrid fitness for binding NBS DNA” value is 0.556.

Take SKQG: the “one-hybrid fitness for binding NBS DNA” value is not above 0.2.

Take NTNR: the “one-hybrid fitness for binding NBS DNA” value is not above 0.2.

Take IMTY: the “one-hybrid fitness for binding NBS DNA” value is not above 0.2.

In the case of VDAG, the “one-hybrid fitness for binding NBS DNA” value was not above 0.2.

QCEI: the “one-hybrid fitness for binding NBS DNA” value was not above 0.2.

As for WNLS, the “one-hybrid fitness for binding NBS DNA” value was not above 0.2.

LITA: the “one-hybrid fitness for binding NBS DNA” value is not above 0.2.

For the variant LNMR, the “one-hybrid fitness for binding NBS DNA” value was not above 0.2.

For QDDT, the “one-hybrid fitness for binding NBS DNA” value is not above 0.2.

Turning to PIRY, the “one-hybrid fitness for binding NBS DNA” value was not above 0.2.

PPCQ: the “one-hybrid fitness for binding NBS DNA” value was not above 0.2.

As for KSKG, the “one-hybrid fitness for binding NBS DNA” value was not above 0.2.

Take GDRF: the “one-hybrid fitness for binding NBS DNA” value was not above 0.2.

Turning to TVPQ, the “one-hybrid fitness for binding NBS DNA” value was not above 0.2.

Take IAWT: the “one-hybrid fitness for binding NBS DNA” value is not above 0.2.

On to WKGG, for which the “one-hybrid fitness for binding NBS DNA” value was not above 0.2.

As to VYVG, the “one-hybrid fitness for binding NBS DNA” value was not above 0.2.

As for GQHA, the “one-hybrid fitness for binding NBS DNA” value is not above 0.2.

With ATHV, the “one-hybrid fitness for binding NBS DNA” value was not above 0.2.

Turning to LRPG, the “one-hybrid fitness for binding NBS DNA” value was not above 0.2.

Consider VGHR, for which the “one-hybrid fitness for binding NBS DNA” value was not above 0.2.

LDQC: the “one-hybrid fitness for binding NBS DNA” value is not above 0.2.

Turning to SSSH, the “one-hybrid fitness for binding NBS DNA” value is not above 0.2.

Take RFKE: the “one-hybrid fitness for binding NBS DNA” value is not above 0.2.

On to DSRY, for which the “one-hybrid fitness for binding NBS DNA” value is not above 0.2.

For the variant RIKR, the “one-hybrid fitness for binding NBS DNA” value turned out to be 0.675.

For the variant NQTL, the “one-hybrid fitness for binding NBS DNA” value is not above 0.2.

For APLE, the “one-hybrid fitness for binding NBS DNA” value is not above 0.2.

Regarding CPNC, the “one-hybrid fitness for binding NBS DNA” value was not above 0.2.

Turning to RFYD, the “one-hybrid fitness for binding NBS DNA” value is not above 0.2.

On to SADS, for which the “one-hybrid fitness for binding NBS DNA” value was not above 0.2.

SGHC: the “one-hybrid fitness for binding NBS DNA” value was not above 0.2.

Turning to NLPV, the “one-hybrid fitness for binding NBS DNA” value was not above 0.2.

Consider AVIS, for which the “one-hybrid fitness for binding NBS DNA” value is not above 0.2.

On to YAEM, for which the “one-hybrid fitness for binding NBS DNA” value was not above 0.2.

In the case of GSCL, the “one-hybrid fitness for binding NBS DNA” value is not above 0.2.

In the case of SHGH, the “one-hybrid fitness for binding NBS DNA” value is not above 0.2.

For YHMS, the “one-hybrid fitness for binding NBS DNA” value is not above 0.2.

Consider ADYI, for which the “one-hybrid fitness for binding NBS DNA” value is not above 0.2.

As to WCVW, the “one-hybrid fitness for binding NBS DNA” value was not above 0.2.

With PQFS, the “one-hybrid fitness for binding NBS DNA” value is not above 0.2.

In the case of MMMT, the “one-hybrid fitness for binding NBS DNA” value was not above 0.2.

As to KPHS, the “one-hybrid fitness for binding NBS DNA” value is not above 0.2.

Take NTCC: the “one-hybrid fitness for binding NBS DNA” value was not above 0.2.

Regarding YNYR, the “one-hybrid fitness for binding NBS DNA” value is not above 0.2.

On to HLCC, for which the “one-hybrid fitness for binding NBS DNA” value is not above 0.2.

SHWL: the “one-hybrid fitness for binding NBS DNA” value was not above 0.2.

Turning to MEYS, the “one-hybrid fitness for binding NBS DNA” value was not above 0.2.

As for DYCT, the “one-hybrid fitness for binding NBS DNA” value is not above 0.2.

Turning to LPNI, the “one-hybrid fitness for binding NBS DNA” value is not above 0.2.

KRVL: the “one-hybrid fitness for binding NBS DNA” value is not above 0.2.

With DVNY, the “one-hybrid fitness for binding NBS DNA” value is not above 0.2.

For the variant VYTV, the “one-hybrid fitness for binding NBS DNA” value is not above 0.2.

Turning to QIYG, the “one-hybrid fitness for binding NBS DNA” value was not above 0.2.

On to HNPV, for which the “one-hybrid fitness for binding NBS DNA” value is not above 0.2.

As to AWCG, the “one-hybrid fitness for binding NBS DNA” value was not above 0.2.

As to AEHG, the “one-hybrid fitness for binding NBS DNA” value is not above 0.2.

As to TNTK, the “one-hybrid fitness for binding NBS DNA” value is not above 0.2.

For the variant RYPD, the “one-hybrid fitness for binding NBS DNA” value is not above 0.2.

For VPPA, the “one-hybrid fitness for binding NBS DNA” value was not above 0.2.

For the variant APQL, the “one-hybrid fitness for binding NBS DNA” value was not above 0.2.

Regarding WFSD, the “one-hybrid fitness for binding NBS DNA” value was not above 0.2.

As to TTLM, the “one-hybrid fitness for binding NBS DNA” value was not above 0.2.

Turning to IQTP, the “one-hybrid fitness for binding NBS DNA” value was not above 0.2.

Take RKFC: the “one-hybrid fitness for binding NBS DNA” value was not above 0.2.

TPHR: the “one-hybrid fitness for binding NBS DNA” value is not above 0.2.

PPIY: the “one-hybrid fitness for binding NBS DNA” value was not above 0.2.

On to YLQR, for which the “one-hybrid fitness for binding NBS DNA” value is not above 0.2.

For the variant QFQV, the “one-hybrid fitness for binding NBS DNA” value was 0.244.

As for GRAG, the “one-hybrid fitness for binding NBS DNA” value is not above 0.2.

The record behind these values is a collection of fitness landscapes (doi:10.1016/j.celrep.2020.107928).
